# Test results as given in patent EP4674438A1, “ANTIBODY-DRUG CONJUGATE CONTAINING ANTI-CD138 ANTIBODY” (priority 2023, dated 2024).
# Residue numbers refer to the chain shown, from its start.
# B1: ADC12 (conjugate)
# heavy: QVQLVQSGAEVKKPGSSVKVSCKASGYTFSNYWIEWVRQAPGQGLEWIGEILPGTGRTIYNEKFKGRATFTADISTSTAYMELSSLRSEDTAVYYCARRDYYGNFYYAMDYWGQGTLVTVSS[human IgG1 constant region not spelt out]
# light: DIQMTQSPSSLSASVGDRVTITCSASQGINNYLNWYQQKPGKAPKLLIYYTSTLQSGVPSRFSGSGSGTDYTLTISSLQPEDFATYYCQQYSKLPRTFGGGTKVEIKRTVAAPSVFIFPPSDEQLKSGTASVVCLLNNFYPREAKVQWKVDNALQSGNSQESVTEQDSKDSTYSLSSTLTLSKADYEKHKVYACEVTHQGLSSPVTKSFNRGEC
# B2: ADC13 (conjugate)
# heavy: B1 heavy with A68V
# light: B1 light
# B3: ADC17 (conjugate)
# heavy: B1 heavy
# light: B1 light
# B4: ADC11 (conjugate)
# heavy: QVQLVQSGAEVKKPGSSVKVSCKASGYTFSNYWIEWVRQAPGQGLEWIGEILPGTGRTIYNEKFKGRVTFTADESTSTAYMELSSLRSEDTAVYYCARRDYYGNFYYAMDYWGQGTLVTVSSASTKGPSVFPLAPSSKSTSGGTAALGCLVKDYFPEPVTVSWNSGALTSGVHTFPAVLQSSGLYSLSSVVTVPSSSLGTQTYICNVNHKPSNTKVDKKV[human IgG1 Fc with changes not spelt out]
# light: B1 light
# B5: ADC14 (conjugate)
# heavy: B1 heavy with A68V, I74E
# light: B1 light
# B6: ADC10 (conjugate)
# heavy: QVQLVQSGAEVKKPGSSVKVSCKASGYTFSNYWIEWVRQAPGQGLEWIGEILPGTGRTIYNEKFKGRATFTADESTSTAYMELSSLRSEDTAVYYCARRDYYGNFYYAMDYWGQGTLVTVSSASTKGPSVFPLAPSSKSTSGGTAALGCLVKDYFPEPVTVSWNSGALTSGVHTFPAVLQSSGLYSLSSVVTVPSSSLGTQTYICNVNHKPSNTKVDKKV[human IgG1 Fc with changes not spelt out]
# light: B1 light
# B7: ADC9 (conjugate)
# heavy: QVQLVQSGAEVKKPGSSVKVSCKASGYTFSNYWIEWVRQAPGQGLEWIGEILPGTGRTIYNEKFKGRVTFTADISTSTAYMELSSLRSEDTAVYYCARRDYYGNFYYAMDYWGQGTLVTVSSASTKGPSVFPLAPSSKSTSGGTAALGCLVKDYFPEPVTVSWNSGALTSGVHTFPAVLQSSGLYSLSSVVTVPSSSLGTQTYICNVNHKPSNTKVDKKV[human IgG1 Fc with changes not spelt out]
# light: B1 light
# B8: ADC8 (conjugate)
# heavy: QVQLVQSGAEVKKPGSSVKVSCKASGYTFSNYWIEWVRQAPGQGLEWIGEILPGTGRTIYNEKFKGRATFTADISTSTAYMELSSLRSEDTAVYYCARRDYYGNFYYAMDYWGQGTLVTVSSASTKGPSVFPLAPSSKSTSGGTAALGCLVKDYFPEPVTVSWNSGALTSGVHTFPAVLQSSGLYSLSSVVTVPSSSLGTQTYICNVNHKPSNTKVDKKV[human IgG1 Fc with changes not spelt out]
# light: B1 light
# B9: ADC16 (conjugate)
# heavy: B1 heavy
# light: B1 light
# How the values were obtained:
# [1] = system: human T cell leukemia Jurkat (CD138-negative); assay: Cytotoxicity mediated by ADC, CellTiter-Glo 2.0 luminescent cell viability assay, Jurkat (Example 6); type: cell-based; details: 37°C, 5 days
# Description: ADC1 to ADC14 were prepared in accordance with the procedure described in Example 4, and the cytotoxicity thereof against the pancreatic cancer cell line Capan-1 and the human T cell leukemia Jurkat was evaluated by the CellTiter-Glo 2.0 luminescent cell viability assay (Promega). The cells were seeded at 1,000 cells/well on a 96-well plate, the ADCs were added, and culture was then performed at 37°C for 5 days. Thereafter, the reagent for CellTiter-Glo 2.0 luminescent cell viability assay was added. The relative luminescence was measured using the EnSpire Multimode Plate Reader (PerkinElmer), the data were analyzed using the XLfit software (IDBS), and IC50 for each cancer cell line was determined (Table 6). […] Such cytotoxicity is considered to be induced by the antigen-independent mechanism. […]
# [2] = system: pancreatic cancer cell line (Capan-1); assay: Anti-tumor effects of ADC in vivo, Capan-1 cancer-carrying nude mice (Example 8); details: 1 mg/kg intravenously once a week; compared with the control group; Figure 5 A
# Description: Cancer-carrying animal models were prepared using the cells of the pancreatic cancer cell line (Capan-1). At the outset, the cells were prepared and inoculated subcutaneously into the right chest of nude mice (1 × 10^7 cells/100 μl). When the volume of the inoculated tumor was increased to approximately 100 to 200 mm^3, the nude mice were randomly divided into a control group (PBS administration) and test groups, and […]13, and ADC14 were injected intravenously thereinto at 1 mg/kg. Administration was performed once a week. The tumor volume was measured two times a week, and the tumor volume was calculated in accordance with the equation indicated below: Tumor volume (mm^3) = (longaxis×shortaxis^2)/2 [formula]
# [3] = system: human T cell leukemia cell line Jurkat (CD138-negative); assay: Cytotoxicity mediated by ADC, CellTiter-Glo 2.0 luminescent cell viability assay, Jurkat (Example 9); type: cell-based; details: for IC50: Jurkat (CD138-negative), 37°C, 5 days; for cytotoxicity against the CD138-negative Jurkat cells: result in words
# Description: (§1) The cytotoxicity of ADC15, ADC16, and ADC17 against the pancreatic cancer cell line BxPC-3 and the human T cell leukemia cell line Jurkat was evaluated by the CellTiter-Glo 2.0 luminescent cell viability assay (Promega). The BxPC-3 cells and the Jurkat cells were seeded at 350 cells/well and 150 cells/well, respectively, on a 384-well plate, ADC16 and ADC17 were added, and culture was performed at 37°C for 5 days. Thereafter, the reagent for CellTiter-Glo 2.0 luminescent cell viability assay was added. The relative luminescence was measured using the EnSpire Multimode Plate Reader (PerkinElmer), the data were analyzed using the 4 Parameter Logistic Model, and IC50 for each cancer cell line was determined. […] The antibody, the linker, and the payload of ADC16 are common with those of ADC17, although the number of drugs bound to an antibody molecule is different (ADC16: 3.78, ADC17: 7.91). ADC16 and ADC17 are considered to maintain the antigen-dependent cytotoxicity.
# [4] = system: pancreatic cancer cell line BxPC-3 (CD138-positive); assay: Cytotoxicity mediated by ADC, CellTiter-Glo 2.0 luminescent cell viability assay, BxPC-3; type: cell-based; details: result in words
# Description: as §1
# [5] = ADC stability: denaturation midpoint and aggregation initiation temperature (UNcle); type: physicochemical; details: Dulbecco's PBS pH 7.4, n = 3; for Denaturation midpoint temperature Tm2: 25°C to 95°C by 1°C every minute; for Aggregation initiation temperature Tagg266: static light scatter at 266 nm
# Description: The concentration of ADC15 was adjusted to approximately 2.71 mg/ml with phosphate-buffered saline (Dulbecco's PBS; pH 7.4), that of ADC16 was adjusted to 7.91 mg/ml therewith, and that of ADC17 was adjusted to 5.61 mg/ml therewith. The denaturation midpoint temperature, the aggregation initiation temperature, and the particle size distribution of the antibody solutions were determined using a protein physical property evaluator UNcle (UNCHAINED LABS). Specifically, the denaturation midpoint temperature and the aggregation initiation temperature were determined by simultaneously performing fluorescent spectral measurement and static light scatter measurement while raising the temperature of the antibodies from 25°C to 95°C by 1°C every minute. On the basis of the results of the fluorescent spectral measurement, the midpoint temperature of peak shift; i.e., the denaturation midpoint temperature, was determined (n = 3) using the phenomenon that the peak center of the fluorescent spectra of amino acids internalized in the antibody would shift upon antibody denaturation. On the basis of the results of the static light scatter measurement, the temperature at which the scattered light at 266 nm becomes intensified; i.e., the aggregation initiation temperature, was determined (n = 3) using the phenomenon that the scattering intensity would be increased upon aggregation.
# [6] = ADC stability: aggregation on storage at 50°C, dynamic light scattering; type: physicochemical; details: storage at 50°C for 48 hours, Dulbecco's PBS pH 7.4; n = 3
# Description: With the use of ADC15 (2.71 mg/ml), ADC16 (7.91 mg/ml), and ADC17 (5.61 mg/ml) prepared with phosphate-buffered saline (Dulbecco's PBS; pH 7.4), the molecular size was measured every 30 minutes with the elapse of time by dynamic light scattering measurement under storage conditions at 50°C for 48 hours, and a difference between the initial average molecular size and the average molecular size 48 hours after the initiation of the measurement was determined to evaluate the aggregation properties (n = 3).
molecule,measurement,setting,value
B1,IC50,[1],4.028 µg/mL
same,tumor growth / anti-tumor effects,[2],equivalent anti-tumor effects
B2,IC50,[1],4.377 µg/mL
same,tumor growth / anti-tumor effects,[2],equivalent anti-tumor effects
B3,IC50,[3],2.791 µg/mL
same,cytotoxicity against the CD138-negative Jurkat cells,[3],did not exert the cytotoxicity
same,cytotoxicity against the CD138-positive BxPC-3 cells,[4],exerted the cytotoxicity
same,Denaturation midpoint temperature Tm2,[5],82.8 °C
same,Aggregation initiation temperature Tagg266,[5],75.7 °C
same,Increase in average molecular size,[6],3.2 nm
B4,IC50,[1],3.592 µg/mL
B5,IC50,[1],4.761 µg/mL
same,tumor growth / anti-tumor effects,[2],equivalent anti-tumor effects
B6,IC50,[1],3.674 µg/mL
B7,IC50,[1],3.26 µg/mL
B8,IC50,[1],3.124 µg/mL
B9,IC50,[3],>8 µg/mL
same,cytotoxicity against the CD138-negative Jurkat cells,[3],did not exert the cytotoxicity
same,cytotoxicity against the CD138-positive BxPC-3 cells,[4],exerted the cytotoxicity
same,Denaturation midpoint temperature Tm2,[5],84.0 °C
same,Aggregation initiation temperature Tagg266,[5],75.3 °C
same,Increase in average molecular size,[6],5.7 nm
